Measurements reported in the RNAGym collection of RNA variant scans (doi:10.7554/elife.90254).
Read counts are not given, so values of variants with three or more changes are uncertain.

B1: LINE1-full (parent)
chain: UACGUAGGUGGUUUUCCCCUGAUAGUGCUAAGGGGGCCUGGAAGUUUGGACUGGGCAGAGCUCAACACAGCGUGGCAAAGUGGCUGUGGCUAGACUGCCUCUCUGGAUUCCUCGUCACUCAGCAGGGCAUCUCUGAGAGAAAUGCC

Variants of: B1
Assay: self-cleavage, relative activity (ratio to wild type); higher = more cleavage; in vitro, sequencing; the parent is a self-cleaving ribozyme
For U5C U46C A107U U112G A124G, the self-cleavage was 1.02.
U5C U46C A129G A142G showed a self-cleavage of 1.12.
Work on U5C U47C A69U yielded a self-cleavage of 0.3.
U5C U47G U87C showed a self-cleavage of 0.
In the case of U5C U52A A57U A77U, the self-cleavage is reported as 0.21.
Work on U5C U52A A121G yielded a self-cleavage of 1.65.
For U5C U52A G74A A138G, the self-cleavage was 0.
For U5C U52C A92G A142G, the self-cleavage was 0.22.
In the case of U5C U62C A65G, the self-cleavage is reported as 0.34.
U5C U62C U73A G114A U134C gave a self-cleavage of 0.1.
Variant U5C U73A A129G U132C has a self-cleavage of 1.91.
Variant U5C U81C G97A U108C U132C A141G has a self-cleavage of 0.35.
Variant U5C U87A A142G has a self-cleavage of 0.13.
U5C U87A U108C showed a self-cleavage of 0.05.
For U5C U100C A140G, the self-cleavage was 0.97.
U5C U100C G127C U143C gave a self-cleavage of 1.41.
U5C U102C U134A showed a self-cleavage of 1.23.
Work on U5C U104A U115C yielded a self-cleavage of 1.08.
U5C U112A A124U U130C U143A showed a self-cleavage of 1.58.
Variant U5C U115A G126A A141G has a self-cleavage of 1.27.
Variant U5C U130C A136U has a self-cleavage of 1.28.
With U5C U134C A138G the self-cleavage was 0.72.
U5C U143C C146U showed a self-cleavage of 1.15.
U5G A69G U91A A107G C111U gave a self-cleavage of 0.
For U5G A121G U130C, the self-cleavage was 0.42.
U5G C51U U87C C113U A138G showed a self-cleavage of 0.26.
Variant U5G G36A A79G C84A A136G has a self-cleavage of 0.15.
Work on U5G U9A U100C yielded a self-cleavage of 0.4.
U5G U14C A79G gave a self-cleavage of 0.31.
Variant U5G U20C A117U U132C has a self-cleavage of 0.
With U5G U39A A59G A77G the self-cleavage was 0.19.
Work on U5G U45C A50G yielded a self-cleavage of 1.1.
Work on A6C A57G A77G yielded a self-cleavage of 1.02.
Variant A6C U12A G25A U96A A117U has a self-cleavage of 0.
For A6C U12C A42U, the self-cleavage was 0.32.
For A6C U13C G36A, the self-cleavage was 0.78.
With A6C U39G U85C U134C A140U the self-cleavage was 0.44.
In the case of A6G A22G A43U U46C U85C U115C, the self-cleavage is reported as 0.
A6G A22G A78G gave a self-cleavage of 1.84.
For A6G A22G U62G, the self-cleavage was 0.
For A6G A22G U96C A141G, the self-cleavage was 0.24.
For A6G A22G U132C U134C, the self-cleavage was 0.
A6G A30C A65G U134A gave a self-cleavage of 0.14.
A6G A30G A42G A43G U47C gave a self-cleavage of 2.63.
In the case of A6G A30G A43U A69G U100C, the self-cleavage is reported as 0.
Work on A6G A30U G36C U96A yielded a self-cleavage of 0.33.
A6G A31U A65G showed a self-cleavage of 0.
Variant A6G A42G A59G U62C A138G has a self-cleavage of 0.
A6G A42G U45A A124G gave a self-cleavage of 1.25.
Work on A6G A43G U45A yielded a self-cleavage of 0.91.
A6G A43G U62C G97A showed a self-cleavage of 0.11.
A6G A43G U134C gave a self-cleavage of 0.3.
A6G A43U A78G showed a self-cleavage of 0.9.
For A6G A43U A94U, the self-cleavage was 0.39.
A6G A50U A59G U109A gave a self-cleavage of 0.21.
With A6G A57G A121C U132C the self-cleavage was 0.
Variant A6G A57G G75A U130C has a self-cleavage of 0.4.
Variant A6G A59G C76U U100C has a self-cleavage of 0.32.
In the case of A6G A64G A136G, the self-cleavage is reported as 0.19.
In the case of A6G A65G A77U, the self-cleavage is reported as 0.12.
A6G A65G U130C U132A A140G gave a self-cleavage of 0.16.
With A6G A69G G75U U119C the self-cleavage was 0.98.
A6G A69U A78U A142G showed a self-cleavage of 0.22.
With A6G A78G A79G A124G the self-cleavage was 1.15.
Variant A6G A78G A117G has a self-cleavage of 1.97.
A6G A78G U119C A121C gave a self-cleavage of 0.
For A6G A79G U85G, the self-cleavage was 1.45.
For A6G A79G U108A U115A A121U A141G, the self-cleavage was 1.67.
Work on A6G A79G U134A yielded a self-cleavage of 0.54.
A6G A94G U119A showed a self-cleavage of 0.39.
A6G A107G U119C showed a self-cleavage of 1.12.
Variant A6G C17A U96A G139A has a self-cleavage of 0.11.
Variant A6G C19U G49U U52C has a self-cleavage of 0.13.
A6G C28U U104C gave a self-cleavage of 0.88.
With A6G C38A A67G the self-cleavage was 1.16.
In the case of A6G C38U A42G U87C A140U, the self-cleavage is reported as 0.28.
Work on A6G C38U A64G U112C yielded a self-cleavage of 0.22.
With A6G C56U A117G U130C the self-cleavage was 0.62.
With A6G G7A A30U U46C U52C C103A U132C the self-cleavage was 0.92.
For A6G G7A U15C U45C A79G A140G, the self-cleavage was 1.15.
For A6G G21A U45A U52C, the self-cleavage was 0.86.
For A6G G35U U47A A67G U91A U119C, the self-cleavage was 0.25.
For A6G G41A U102C, the self-cleavage was 0.83.
For A6G G49U U112C A138G, the self-cleavage was 1.45.
Variant A6G G114A A124G has a self-cleavage of 0.78.
In the case of A6G U9A C110U A124G U132C, the self-cleavage is reported as 1.36.
In the case of A6G U9A G11A G97A, the self-cleavage is reported as 0.12.
In the case of A6G U9A U15C U73A U96C A107G A142G, the self-cleavage is reported as 0.
With A6G U9A U26A A69G U87C U143A the self-cleavage was 0.
In the case of A6G U9C G54A A107G A138G, the self-cleavage is reported as 1.39.
Work on A6G U9C U12G A50G U96A A141G yielded a self-cleavage of 0.54.
With A6G U12C A24G A77U U91C A121U the self-cleavage was 0.92.
Variant A6G U12C A69U C76U C128U A138U has a self-cleavage of 0.
A6G U12C U45A gave a self-cleavage of 1.41.
With A6G U12G A42G U47A G135U A142G the self-cleavage was 0.22.
In the case of A6G U12G A77U U134A, the self-cleavage is reported as 0.8.
Work on A6G U13C A24G U39C C71U U143G yielded a self-cleavage of 1.06.
For A6G U13C A64G A79G, the self-cleavage was 0.
A6G U13C A140U gave a self-cleavage of 1.12.
For A6G U13C G32C U115C, the self-cleavage was 0.
A6G U13C G49A showed a self-cleavage of 0.64.
In the case of A6G U13C U20C U115C A142G, the self-cleavage is reported as 0.
In the case of A6G U13C U23C C66U A67G, the self-cleavage is reported as 0.36.
With A6G U13C U46A A136G the self-cleavage was 1.28.
With A6G U13C U62C the self-cleavage was 0.35.
For A6G U13G U108C, the self-cleavage was 1.34.
With A6G U14A U112C the self-cleavage was 0.77.
In the case of A6G U14C A22G C90U, the self-cleavage is reported as 0.15.
In the case of A6G U14C U62A U87A A92G A138G, the self-cleavage is reported as 0.
A6G U14C U73C gave a self-cleavage of 0.66.
A6G U15A A59G showed a self-cleavage of 0.
A6G U15A U134G gave a self-cleavage of 1.75.
A6G U20A U39A gave a self-cleavage of 1.37.
Variant A6G U20A U47C U87A has a self-cleavage of 0.27.
Variant A6G U20A U91C A94U has a self-cleavage of 0.41.
A6G U20C G21C U45C U52A A141G showed a self-cleavage of 0.51.
A6G U20C G21U U39C U100C U102C U134A gave a self-cleavage of 1.02.
With A6G U23C G34A the self-cleavage was 1.23.
Variant A6G U26C G33A has a self-cleavage of 0.55.
In the case of A6G U29C A79G A141G, the self-cleavage is reported as 1.53.
A6G U39C A64C showed a self-cleavage of 0.
Work on A6G U39C A136G yielded a self-cleavage of 0.59.
A6G U45A A67U U112C showed a self-cleavage of 0.36.
A6G U45A U46A G55A A69G showed a self-cleavage of 0.25.
Work on A6G U45A U62C A65G U115A U143C yielded a self-cleavage of 0.14.
For A6G U45C A77U U100C U134C, the self-cleavage was 1.53.
With A6G U46A U52C the self-cleavage was 0.41.
In the case of A6G U47A U52C, the self-cleavage is reported as 1.53.
Work on A6G U47G A69G yielded a self-cleavage of 0.35.
In the case of A6G U47G U87C, the self-cleavage is reported as 0.42.
A6G U62A U96A showed a self-cleavage of 0.16.
With A6G U62C A77G the self-cleavage was 1.23.
For A6G U73A A107G, the self-cleavage was 1.21.
Work on A6G U73A U112A yielded a self-cleavage of 1.23.
Variant A6G U73A U119C has a self-cleavage of 1.84.
With A6G U73C A124U the self-cleavage was 2.57.
Variant A6G U81A G97A U100A has a self-cleavage of 0.22.
A6G U81C A92U gave a self-cleavage of 1.08.
Work on A6G U81C A94G C99A yielded a self-cleavage of 0.
In the case of A6G U85A A124G A138C, the self-cleavage is reported as 0.29.
With A6G U85C U104C A117U the self-cleavage was 0.16.
With A6G U87A A94G the self-cleavage was 0.
A6G U96C U134C gave a self-cleavage of 0.38.
With A6G U100C U102A A124U the self-cleavage was 1.53.
Variant A6G U109C G135A has a self-cleavage of 0.7.
With A6G U115C G122A A124G A140G the self-cleavage was 0.88.
In the case of A6G U119A A121U, the self-cleavage is reported as 1.07.
For A6G U134A A141G, the self-cleavage was 0.56.
With A6U A22G A77G C95U the self-cleavage was 0.8.
With A6U A24U U119C the self-cleavage was 0.88.
For A6U A31G G35C U115A, the self-cleavage was 1.46.
A6U A31G U112A showed a self-cleavage of 1.02.
Variant A6U A31U A136U has a self-cleavage of 1.29.
Variant A6U A42G A57G G114A U143C has a self-cleavage of 0.69.
In the case of A6U A43U U87A, the self-cleavage is reported as 0.09.
Variant A6U A57G A77G has a self-cleavage of 0.59.
Variant A6U A57G U112C has a self-cleavage of 0.35.
A6U A59G A107U showed a self-cleavage of 0.25.
In the case of A6U A69G A77U A136G, the self-cleavage is reported as 0.9.
A6U A69G U96C gave a self-cleavage of 0.
Variant A6U A78U A94U U134C A140G has a self-cleavage of 0.57.
A6U A92C U112A C145G showed a self-cleavage of 0.06.
Work on A6U A117G U119A A142G yielded a self-cleavage of 1.15.
A6U C19U G34A U45C gave a self-cleavage of 0.82.
A6U C19U U85C showed a self-cleavage of 0.23.
A6U C71U U132C U134C gave a self-cleavage of 0.85.
For A6U C113U A136G, the self-cleavage was 1.26.
